Laboratory results taken from PubChem BioAssay AID485294 (National Center for Advancing Translational Sciences (NCATS), 2010).
Out of some 370,000 compounds screened, about 150 (0.041%) were called active. Inconclusive results, whose numbers are uncertain, are shown with a selection of clear calls. Calls come from the whole dose curve; as a rule, active = well fitted inhibition curve with a large enough effect; inconclusive = small, poorly fitted or top-dose-only effect; inactive = flat fitted curve, though single readings scatter. Potencies of inconclusive entries are left out as doubtful fits.

The compounds below were run against Beta-lactamase (Escherichia coli (strain K12)) (UniProt P00811) (assay: qHTS Inhibitors of AmpC Beta-Lactamase (assay with detergent)). Conditions: AmpC hydrolysis of nitrocefin, absorbance 480 nm, 0.01% Triton; activity change, negative = inhibition: at 114 µM (top of the series).
In short: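 20 mM phosphate pH 7.0 + 0.01% (detergent screen) or 0.0001% Triton X-100; 5.3 nM AmpC reagent; cpd preinc 15 min RT; nitrocefin (800 uM stock) to start; A480 q20 s × 4 min; Activity was normalised to no-enzyme and no-compound control wells.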
Note: nearly all actives have a fitted effect of over 25% in size.
Potency is the fitted concentration of half-maximal effect; tags give direction and shape of the fitted curve.
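Throughout, for activity change, negative = inhibition: 0% = no-compound wells and -100% = no-enzyme wells.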

UniProt P00811, sequence (P00811 whole entry, looked up): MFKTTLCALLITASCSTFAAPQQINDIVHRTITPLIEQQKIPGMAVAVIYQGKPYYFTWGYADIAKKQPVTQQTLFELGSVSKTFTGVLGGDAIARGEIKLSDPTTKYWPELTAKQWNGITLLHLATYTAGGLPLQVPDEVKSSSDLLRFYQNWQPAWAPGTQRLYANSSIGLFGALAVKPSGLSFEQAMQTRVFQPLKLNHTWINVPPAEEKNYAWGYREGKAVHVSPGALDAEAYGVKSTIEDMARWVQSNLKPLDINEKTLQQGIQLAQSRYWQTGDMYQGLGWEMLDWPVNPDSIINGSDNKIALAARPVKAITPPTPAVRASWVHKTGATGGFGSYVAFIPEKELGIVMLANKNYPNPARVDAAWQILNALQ

Structure (SMILES)	activity change, negative = inhibition	Potency
CCCn1c(-c2cccc(Br)c2)nc2ccccc21	inactive: -5.11%	–
CCn1c(=O)c2cc(C(=O)N3CCN(C)CC3)sc2c2ccccc21	inactive: -5.02%	–
O=C(N1CCOCC1)N(Cc1cccs1)C1CCCC1	–	inconclusive [inhibitor, full curve]
CCOC(=O)N1CCN(c2c(NCC3CCN(Cc4cccc(C)c4)CC3)c(=O)c2=O)CC1	–	inconclusive [inhibitor, full curve]
COCCCN(C(=O)c1ccc(N2CCCC2=O)cc1)c1c(N)n(Cc2ccccc2)c(=O)[nH]c1=O	–	inconclusive [inhibitor, full curve, poor fit]
NS(=O)(=O)c1ccc(N/N=C/c2cn(-c3ccccc3)nc2-c2cccs2)cc1	inactive: -1.66%	–
CC(C)(C)OC(=O)N1CCC(c2nnc(SCc3ccccc3)o2)CC1	inactive: -2.95%	–
COc1cccc2sc(N(CCN(C)C)C(=O)/C=C/c3cccs3)nc12	inactive: 7.18%	–
Cc1cc(NC(=O)COc2ccccc2)cc(-c2nc3ccccc3o2)c1O	inactive: -3.91%	–
C[C@@H]1C=C[C@](Cc2ccccc2)(C(=O)NCCc2c[nH]c3ccccc23)N1C(=O)c1ccccc1	inactive: -18.1%	–
CCCSc1nsc(NC(=O)CCC)n1	inactive: -3.81%	–
COc1ccccc1NS(=O)(=O)c1ccc2oc(SC3CCOC3=O)nc2c1 (centres undefined)	–	inconclusive [inhibitor, full curve, poor fit]
N#Cc1ccc(OCC(=O)Nc2ccccc2NS(=O)(=O)c2cccs2)cc1	–	inconclusive [inhibitor, full curve, poor fit]
O=C(c1cccnc1)N1CCN(S(=O)(=O)c2ccc3ccccc3c2)CC1	–	inconclusive [inhibitor, full curve]
CCOC(=O)c1[nH]c2cc(OC)c(OC)cc2c1NC(=O)CN1CCN(C)CC1	–	inconclusive [inhibitor, full curve, poor fit]
O=C(c1cc(-c2cccc(O)c2)on1)N1CCCCC1	–	inconclusive [inhibitor, full curve]
CC(C)n1c(SCC(=O)Nc2ccc(F)cc2)nc2c(oc3ccccc32)c1=O	inactive: 22%	–
Cc1nn(-c2cccc(Cl)c2)nc1C(=O)Nc1cccc(C(=O)NC2CC2)c1	inactive: -15%	–
CC(C)C(=O)Nc1ccc(-c2nc3ncccc3o2)cc1	–	inconclusive [inhibitor, partial curve, poor fit]
CN(C)CCNC(=O)Nc1cccc(Cl)c1Cl	–	inconclusive [inhibitor, partial curve, poor fit]
COc1ccc(Cl)cc1C(=O)Nc1nnn(C)n1	–	inconclusive [inhibitor, full curve, poor fit]
Cc1ccccc1NCC(=O)N/N=C\c1ccc([N+](=O)[O-])s1	–	inconclusive [inhibitor, full curve, poor fit]
O=C(NCc1nnnn1-c1ccc(F)cc1)c1ccc([N+](=O)[O-])o1	–	inconclusive [inhibitor, single point]

Structure (SMILES)	activity change, negative = inhibition	Potency
C=CCn1c(=S)[nH]c2ccccc2c1=O	–	inconclusive [inhibitor, partial curve, poor fit]
Cc1c(C(=O)OCC(=O)N(CCC#N)c2ccccc2)oc2c1ccc1ccccc12	–	inconclusive [inhibitor, partial curve, poor fit]
CCOc1ccc(C2C(C(=O)OC)=CN(CCOC)C=C2C(=O)OC)cc1	–	inconclusive [inhibitor, full curve, poor fit]
Cc1cccc(C[C@H](C(=O)O)N2C(=O)c3ccc(C(=O)O)cc3C2=O)c1	–	inconclusive [inhibitor, full curve, poor fit]
COC(=O)c1c(NC(=O)c2cccs2)sc2c1CCC(C)C2 (centres undefined)	–	inconclusive [inhibitor, full curve, poor fit]
COc1ccc(/C(C)=C2\SC(=S)N(CCC(=O)O)C2=O)cc1	–	inconclusive [inhibitor, single point]
CCC(C)NC(=O)CSc1nnc(-c2ccc(Cl)cc2)n1N (centres undefined)	inactive: 4.86%	–
Cc1cc(C)n(-c2ccc(C(=O)OCC(=O)NCc3ccc(Cl)cc3)cc2)n1	–	inconclusive [inhibitor, single point]
CCSc1nnc(NC(=O)COc2ccc3ccccc3c2)s1	–	inconclusive [inhibitor, partial curve]
CC(Sc1ccccc1)C(=O)Nc1ccccc1C(=O)N1CCOCC1 (centres undefined)	inactive: 4.98%	–
Cc1cc(C)nc(SCC(=O)O)n1	–	inconclusive [inhibitor, partial curve, poor fit]
COc1ccc(C2N(S(=O)(=O)c3ccccc3)CCN2S(=O)(=O)c2ccc(C)cc2)cc1 (centres undefined)	inactive: 2.48%	–
O=C(Nc1nccs1)c1ccccc1[N+](=O)[O-]	–	inconclusive [inhibitor, full curve, poor fit]
CC(=O)c1ccc(OCCCN2CCCCC2)cc1	inactive: -0.869%	–
Cc1ccc(OCC(=O)Nc2ccccc2C(N)=O)cc1	–	inconclusive [inhibitor, full curve, poor fit]
CC1CCCC(C)N1C(=O)CNCc1ccc2c(c1)OCO2 (centres undefined)	–	inconclusive [inhibitor, partial curve, poor fit]
O=C(Nc1ccc(F)c(S(=O)(=O)N2CCOCC2)c1)C1CCCCC1	–	inconclusive [inhibitor, full curve, poor fit]
COc1ccc2[nH]c(=O)c(CN(Cc3ccc(C)cc3)Cc3nnnn3CC3CCCO3)cc2c1 (centres undefined)	–	inconclusive [inhibitor, single point]
Cc1ccc(C)c2[nH]c(=O)c(CCNC(=O)CC(C)C)cc12	–	inconclusive [inhibitor, full curve]
CN(Cc1ccncn1)C(=O)C1CCC(=O)N(Cc2cccc(C(F)(F)F)c2)C1 (centres undefined)	–	inconclusive [inhibitor, full curve, poor fit]
CCC1(c2ccccc2)NC(=O)N(CC(=O)NCC2COc3ccccc3O2)C1=O (centres undefined)	–	inconclusive [inhibitor, full curve]
CS/C(N)=N/N=C/c1cc(Br)cc(Br)c1O	inactive: 10.9%	–
CCn1cc(C(=O)O)c(=O)c2cnc(N3CCN(C(=S)NC(=O)c4ccc(Br)cc4)CC3)nc21	inactive: -3.97%	–

Structure (SMILES)	activity change, negative = inhibition	Potency
Cc1cc(=O)oc(C)c1C(=O)Nc1ccc(Cl)cn1	–	inconclusive [inhibitor, partial curve]
CCOC(=O)c1ccc(NC(=O)CSc2nc(=O)n3cccc(C)c3n2)cc1	–	inconclusive [inhibitor, full curve, poor fit]
COc1ccc(CCn2c(=N)c(S(=O)(=O)c3ccccc3)cc3c(=O)n4ccccc4nc32)cc1	inactive: -13.3%	–
CCOc1ccc2nc(C)cc(Nc3ccc(N4CCOCC4)cc3)c2c1	–	inconclusive [inhibitor, full curve, poor fit]
O=C(CSc1nnc(NC(=O)c2c(F)cccc2F)s1)NCC1CCCO1 (centres undefined)	–	inconclusive [inhibitor, full curve]
COc1ccc(NC(=O)c2ccc(S(=O)(=O)N(C)C)cc2)cc1OC	–	inconclusive [inhibitor, full curve, poor fit]
COc1ccccc1/C=C/C=N/NC(=O)c1ccncc1	inactive: -7.38%	–
O=c1oc2ccccc2c(O)c1/C=C1\C=Nc2ccccc21	–	inconclusive [inhibitor, partial curve, poor fit]
Nc1c(-c2cccc([N+](=O)[O-])c2)nc2ccccn12	–	inconclusive [inhibitor, partial curve]
COc1ccc(-c2nc(NC(=O)c3ccccc3)sc2-c2ccc([N+](=O)[O-])cc2)cc1	–	inconclusive [inhibitor, full curve, poor fit]
Cc1ccc(CSC2=Nc3ccccc3C3=NC(CC(=O)NC4CCCCC4)C(=O)N23)cc1 (centres undefined)	inactive: 6.27%	–
CN(CC(=O)Nc1ccc(N2CCOCC2)cc1)CC(=O)Nc1ccc(Cl)cc1[N+](=O)[O-]	–	inconclusive [inhibitor, partial curve, poor fit]
COc1cccc(-n2ccn(CC(=O)c3ccc(F)cc3)c(=O)c2=O)c1	inactive: 20.9%	–
COC(=O)N1C/C=C\C(c2ccc(OC)cc2)N(Cc2ccc(F)cc2)C(=O)C1 (centres undefined)	inactive: -2.75%	–
CCCCC(=O)NC(=S)NNC(=O)c1ccc(OC)cc1	–	active: 35.5 µM
O=C(NCC1CC1)c1onc(CSc2nc3ccccc3[nH]2)c1C(=O)NCC1CC1	inactive: -14.6%	–
CCOC(=O)Cc1csc(NC(=O)Nc2cccs2)n1	inactive: 1.78%	–
C/C(=N\NS(=O)(=O)c1ccc(Br)cc1)c1ccc2c(c1)OCO2	–	inconclusive [inhibitor, full curve, poor fit]
Cc1ccnc(N2C(=O)c3ccccc3C2Nc2ccc3c(c2)OCCO3)c1 (centres undefined)	–	inconclusive [inhibitor, full curve, poor fit]
O=[N+]([O-])c1cccc(/C=N/Nc2nc(N3CCOCC3)nc(N3CCOCC3)n2)c1	–	inconclusive [inhibitor, single point]
O=C(O)c1cnn2cc(-c3[nH]ncc3[N+](=O)[O-])cnc12	–	inconclusive [inhibitor, partial curve]
COc1ccc(S(=O)(=O)c2ccc(OC)cc2)cc1	inactive: -5.75%	–
Cc1cc(=O)c2ccccc2[nH]1	–	inconclusive [inhibitor, partial curve, poor fit]
